Molecules are shown by their SMILES. Out of some 48,000 compounds screened, about 1,200 (2.5%) were called active. Another 2% or so got no clear call; they are omitted.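 Rule for the calls: active = activation of at least 60% and not above a set upper limit (about 1 call in 100 departs from these limits); inconclusive = activation of 40% to 60%, or above that upper limit; inactive = activation under 40%.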 Some of the results follow.

Activation data for 84 compounds are collected here from PubChem BioAssay AID1346428 (National Center for Advancing Translational Sciences (NCATS), 2018).

Chain of UniProt O75388 (O75388 whole entry, looked up): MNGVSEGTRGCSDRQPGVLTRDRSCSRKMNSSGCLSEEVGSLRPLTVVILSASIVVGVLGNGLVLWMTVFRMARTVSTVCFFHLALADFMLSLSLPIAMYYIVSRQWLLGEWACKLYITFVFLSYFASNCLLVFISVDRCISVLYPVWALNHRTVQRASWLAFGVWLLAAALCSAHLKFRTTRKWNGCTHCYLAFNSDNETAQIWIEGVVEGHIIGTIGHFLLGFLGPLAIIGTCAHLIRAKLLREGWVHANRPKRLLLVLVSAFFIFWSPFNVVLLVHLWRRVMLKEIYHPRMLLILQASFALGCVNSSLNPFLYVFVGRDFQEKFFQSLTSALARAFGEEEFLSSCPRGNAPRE

This test has as its target Probable G-protein coupled receptor 32 (Homo sapiens) (UniProt O75388). Kind of test: qHTS for Agonists of Human Resolvin D1 Receptor DRV1. As to conditions: CHO-K1 GPR32 beta-arrestin PathHunter luminescence, 90 min; at 76.9 µM; hits give high values; zero percent set by DMSO-only wells. In a few lines:
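Beta-arrestin recruitment read-out: luminescence from complemented beta-Gal in CHO-K1 GPR32 PathHunter cells, measured 1 h after detection reagent at ambient temperature following 90 min compound exposure at 37 °C; DMSO served as basal (EC0) control.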
Consider `Cc1c(NS(=O)(=O)c2ccc(Cl)cc2)c(=O)n(-c2ccccc2)n1C`, for which the activation was inactive: -9.35%.

`Cc1ccc(Cn2cc(CCC(=O)NCC(C)c3ccccc3)c3ccccc32)cc1` (centres undefined): the activation was inactive: -22.8%.

As for `COc1ccc(NC(=O)Cn2nnc(-c3nc(-c4ccncc4)no3)c2N)cc1OC`, the activation is inactive: -5.02%.

With `Cc1cccc(C)c1NC(=O)C1CCCN1S(=O)(=O)c1cccc2nsnc12` (centres undefined), the activation is inactive: -2.36%.

Consider `CCc1cccc(-n2nnc(S(=O)(=O)c3ccc(OC)cc3)c2C)c1`, for which the activation is inactive: 30.3%.

`COc1ccc(C2=NN(CCC(=O)NCCc3ccccc3)C(=O)CC2)cc1`: the activation is inactive: -12.8%.

Consider `COCCn1c(C)cc(O)c(C(c2ccccc2F)N2CCN(c3ccccc3)CC2)c1=O` (centres undefined), for which the activation is inactive: -12.3%.

`COc1ccccc1CCNC(=O)C(=O)NCC(c1cccnc1)N1CCN(c2ccccc2)CC1` (centres undefined): the activation is inactive: -12.6%.

`Cc1ccc(NC(=O)c2cccc(NC(=O)N3CCSc4ncccc43)c2)cc1F`: the activation was inactive: 2.96%.

With `CCOc1ccc(CNC(=O)c2ccc(NC(=O)N3CCSc4ncccc43)cc2)cc1`, the activation is inactive: 6.51%.

Turning to `COc1ccc(-c2cc(C(F)(F)F)nc(SCC(=O)Nc3ccc(O)cc3)n2)cc1OC`, the activation was inactive: -1.21%.

On to `Cc1ccc(C)c(NC(=O)c2cnc3sc(N4CCOCC4)nn3c2=O)c1`, for which the activation is inactive: -6.11%.

For `CCN(CC)CCCNC(=O)CCc1c(C)nc2c(c1C)c(=O)n(C)c(=O)n2C`, the activation was inactive: 7.85%.

Consider `CCCN1C(=O)c2oc3cc(C)cc(C)c3c(=O)c2C1c1ccc(F)cc1` (centres undefined), for which the activation is inactive: -0.38%.

As to `CCCCOCCOC(=O)c1cccnc1`, the activation was inactive: 35.4%.

For `Cc1cc(=O)c2cc(C(=O)Nc3cccc(C)c3C)ccc2[nH]1`, the activation was inactive: -3.21%.

With `COc1ccc(-c2nc3cc(NC(=O)COc4ccc(C)c(C)c4)ccc3o2)cc1`, the activation is inactive: 12.1%.

For the compound `COc1ccc(C(=O)NCc2nc(-c3cccc(C)c3)no2)cc1OC`, the activation was inactive: -7.24%.

As for `Cc1cc(NS(=O)(=O)c2cn(C)c(C)n2)ccc1Br`, the activation is inactive: 10%.

Turning to `COc1cccc(C(=O)COC(=O)c2cc(-c3cccs3)nc3ccccc23)c1`, the activation was inactive: -5.02%.

On to `Cc1ccccc1OCC(=O)Nc1nnc(SCc2cc(=O)n3cc(Cl)ccc3n2)s1`, for which the activation is inactive: -4.36%.

On to `COc1cccc(CNC(=O)CCc2c(C)nc3c4c(C)cc(C)nc4nn3c2C)c1`, for which the activation is inactive: -21.4%.

In the case of `Cc1ccc(CCNc2nc3ccccc3c3nc(-c4cccnc4)nn23)cc1`, the activation is inactive: 18.2%.

As for `Cc1ccc(-n2nc(C)c(C(=O)NCCCN3CCN(c4cccc(Cl)c4)CC3)c2-n2cccc2)cc1`, the activation is inactive: -9.8%.

As to `CCc1ccccc1NC(=O)C1CCN(c2nc3ccccc3[nH]2)CC1`, the activation was inactive: -18.7%.

Turning to `Cc1ccc(C)c(CN2C(=O)c3ccccc3S(=O)(=O)c3ccc(C(=O)NCCc4ccc(Cl)cc4)cc32)c1`, the activation was inactive: -4.88%.

For `CCOC(=O)c1c(C)[nH]c(C)c1S(=O)(=O)NCC(=O)NCc1cccc(Br)c1`, the activation is inactive: -11.3%.

For `CC(C)CCSc1nnc2n(-c3ccccc3)c(=O)c3c4c(sc3n12)CC(C)CC4` (centres undefined), the activation was inactive: -0.155%.

As to `CCc1ccc(NC(=O)Cn2c(=O)nc(-c3ccccc3F)c3cc(Cl)ccc32)cc1`, the activation is inactive: -10.1%.

Turning to `COC(=O)c1ccccc1N(C)S(=O)(=O)c1cc2c3c(c1)CC(=O)N3CCC2`, the activation is inactive: -18.4%.

With `Cc1cc(C)nc(-n2nc(C)c3c2N(Cc2ccccc2C)C(=O)CC3c2ccc(Cl)cc2)n1` (centres undefined), the activation was inactive: -8.1%.

As to `COc1cccc(NC(=O)/C(C#N)=C/c2ccc(-c3ccc(C)cc3)o2)c1`, the activation was inactive: -24.9%.

For the compound `Cc1ccc2cc3cc(C(=O)N4CCN(c5ccccc5)CC4)sc3nc2c1`, the activation is inactive: -12.9%.

`O=C(Cn1cc(S(=O)(=O)Cc2cccc(Cl)c2)c2ccccc21)NCc1ccccc1Cl`: the activation is inactive: -2.01%.

Turning to `Cc1ccc(S(=O)(=O)Nc2cccc(-c3ccc(N4CCCC4)nn3)c2)c(C)c1`, the activation was inactive: -4.77%.

As to `Cc1ccc(CNC(=O)CCn2cnc3ccccc3c2=O)cc1`, the activation is inactive: -4.54%.

As for `Cc1ccc2nc(Nc3ccc(C)c(F)c3)c3nncn3c2c1`, the activation is inactive: -15.6%.

Turning to `Cc1c(Cl)cccc1NC(=O)C1CCN(c2ncnc3c2nc2n3CCCCC2)CC1`, the activation was inactive: -15.2%.

For `COc1ccccc1CN1C(=O)CN(C2CCCCCC2)C(=O)C1c1ccc(F)cc1` (centres undefined), the activation was inactive: -26.3%.

For `CCN(C(=O)Nc1cn(CC(C)C)c(=O)c2ccccc12)c1cc(C)ccc1C`, the activation was inactive: -6.15%.

`CCOC(=O)c1cnn(-c2ccc(C(=O)Nc3cccc(C(C)=O)c3)cc2)c1N`: the activation was inactive: -0.223%.

Take `Cc1ccc(N2CC(NC(=O)c3ccc(S(=O)(=O)N4CCOCC4)cc3)CC2=O)cc1` (centres undefined): the activation is inactive: 9.68%.

Regarding `CCn1nc(C)c(CCN(C)C(=O)Nc2cc(OC)c(OC)c(OC)c2)c1C`, the activation is inactive: -4.63%.

As for `O=C(COCc1cc(-c2cccs2)on1)N1CCN(c2cccc(Cl)c2)CC1`, the activation is inactive: -9.56%.

On to `COc1ccc2cc(C(=O)NCc3ccc4c(c3)CCN4C(=O)c3ccc(F)cc3)[nH]c2c1`, for which the activation is inactive: -14.6%.

Take `Fc1cccc(-c2nnn3c2nc(NCCc2ccccc2)c2ccccc23)c1`: the activation is inactive: 9.18%.

Consider `O=C(CCn1c(=O)c2cccn2c2cccnc21)N1CCN(c2ccccc2F)CC1`, for which the activation is inactive: -17.9%.

As for `COc1cc(C)cc2oc(=O)c(CC(=O)NCCc3ccc(Cl)cc3)c(C)c12`, the activation is inactive: 12.1%.

`CCn1c(=N)n(CCOc2ccc(Br)cc2)c2ccccc21`: the activation was inactive: 5.34%.

On to `CC(C)CNC(=O)N1[C@H](c2cccs2)[C@@H](C)C(=O)[C@@H](C)[C@@H]1c1cccs1`, for which the activation is inactive: -21%.

With `Cc1cccc(OCC(=O)Nc2ccc(-c3nc4ccccc4o3)cc2)c1C`, the activation was inactive: 32.6%.

Turning to `COc1ccc(C)cc1NS(=O)(=O)c1c(C(=O)N2CCCCCC2)c(C)n(C)c1C`, the activation was inactive: -17.9%.

In the case of `CC(C)OCCCNC(=O)Cn1ccc2cc(S(=O)(=O)N3CCCCCC3)ccc21`, the activation is inactive: -4.42%.

`COc1ccc(CC(=O)NCCc2csc(-c3cccc(C)c3)n2)cc1`: the activation was inactive: -9.09%.

`Cc1nc(-c2ccccc2)sc1-c1ccc(SCC(=O)NCc2ccc(Cl)cc2)nn1`: the activation was inactive: -0.791%.

Regarding `CC(=O)c1cccc(NC(=O)CC(c2ccc(C)cc2)N2Cc3ccccc3C2=O)c1` (centres undefined), the activation was inactive: -0.931%.

Turning to `Cc1ccc(CCNS(=O)(=O)c2ccc3c(c2)CC(C)N3C(=O)C2CCC2)cc1` (centres undefined), the activation was inactive: 32.4%.

As for `Cc1ccc(-n2c(=O)[nH]c3cc(C(=O)NCc4ccccc4)ccc3c2=O)cc1`, the activation is inactive: -1.6%.

Turning to `Cc1oc(-c2ccccc2Cl)nc1Cn1c(SCc2cccc(F)c2)nc2cccnc21`, the activation was inactive: -25.8%.

`CN(Cc1ccccc1)c1ccc(-c2nc(-c3ccccn3)no2)cc1[N+](=O)[O-]`: the activation is inactive: 29.8%.

In the case of `COc1cccc(N2CCN(C(=O)c3cc4cc5cc(C)ccc5nc4s3)CC2)c1`, the activation was inactive: -11.8%.

Regarding `COc1ccc(-c2nc(CSCC(=O)NCCc3ccccc3)c(C)o2)cc1`, the activation was inactive: -15.3%.

With `CCc1ccc(-n2c(SCc3ccccc3Cl)nc3[nH]ncc3c2=O)cc1`, the activation is inactive: -5.11%.

On to `COc1cc(OC)c(NC(=O)CCc2c(C)nc3ncnn3c2C)cc1Cl`, for which the activation was inactive: 2.62%.

For the compound `CCn1c(CN2CCC(C)CC2)nc2cc(NC(=O)COc3ccc(Cl)c(C)c3)ccc21`, the activation is inactive: 26.8%.

As for `CCC(=O)N1c2ccccc2CC1C(=O)NCc1ccccc1Cl` (centres undefined), the activation was inactive: -6.83%.

`Cc1cccc(NC(=O)CCn2cnnn2)c1C`: the activation was inactive: -3.26%.

Consider `Cc1ccc(CNC(=O)c2ccc(Cn3c(=O)c4ccccc4n(CC(=O)Nc4ccc(C)cc4)c3=O)cc2)cc1`, for which the activation is inactive: -28.7%.

On to `Cc1cccc(NC(=O)Cn2cc(C(=O)c3ccco3)c3ccccc32)c1`, for which the activation was inactive: -3.64%.

In the case of `COc1ccc(Cn2cc(S(=O)(=O)c3ccc(Cl)cc3)c(=O)c3cc4c(cc32)OCO4)cc1`, the activation is inactive: 5.35%.

Regarding `O=C(NC1(C(F)(F)F)C(=O)Nc2c1c(=O)[nH]c(=O)n2-c1ccc(Cl)cc1)c1ccccc1F` (centres undefined), the activation was inactive: -1.28%.

Regarding `Cc1ccccc1OCCn1c(-c2ccc(Cl)cc2)nc2ccccc2c1=O`, the activation was inactive: 2.05%.

For `C=CC(C)=C[C@@]1(C)SC(=O)C(C)=C1O`, the activation was inactive: -13.6%.

With `O=C(OCc1cc(=O)n2nc(C3CCCCC3)sc2n1)c1ccc(F)cc1`, the activation is inactive: 23.6%.

As to `CCOc1ccc(NC(=O)CC2C(=O)N(c3ccc(Cl)cc3)C(=O)N2Cc2cccs2)cc1` (centres undefined), the activation was inactive: -20%.

For `COc1cccc(NC(=O)c2ccc(-c3nc(COc4ccccc4)c(C)o3)cc2)c1`, the activation is inactive: -10.6%.

`CCc1ccccc1Nc1nn2c(=O)c3ccc(C(=O)NCCCOC(C)C)cc3nc2s1`: the activation is inactive: -8.23%.

For `CCCCN(CC)C(=O)CSc1c2c(nc3ccc(Cl)cc13)CCCC2`, the activation is inactive: -12.4%.

For the compound `O=C(Nc1cccc(Cl)c1)c1ccc2c(c1)CCN2S(=O)(=O)c1ccccc1`, the activation was inactive: -2.8%.

As for `COc1ccc(-c2noc(-c3cccnc3N3CCN(c4ccc(OC)cc4)CC3)n2)cc1`, the activation is inactive: -10.6%.

`COC(=O)c1c(NC(=O)/C(C#N)=C/c2ccccc2)sc2c1CCC2`: the activation was inactive: 3.76%.

For `CCOc1ccc(NC(=O)c2sc3nc4c(c(-c5ccc(OC)cc5)c3c2N)C(=O)CC(C)(C)C4)cc1`, the activation is inactive: -10.7%.

With `CCOc1ccc(-n2cc(-c3ccccc3)c3c(N4CCN(c5ccccc5OC)CC4)ncnc32)cc1`, the activation was inactive: -17.9%.

Take `COc1ccccc1Nc1cc(C(=O)NC2CCC(C)CC2)c2ccccc2n1` (centres undefined): the activation is inactive: -4.68%.
